# Measurements published in PubChem BioAssay (NCI).
# “And” between values parts separate entries of the source, which are not always exact repeats. Equal entries are not always repeated.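 Briefly, cells in 96-well plates were exposed to five compound concentrations for 48 h, and endpoints were estimated by linear interpolation. Abbreviation: GI50, concentration required for 50% inhibition of growth. TGI marks complete inhibition of growth.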
# System: NCI-H322M lung
# Experiment: DTP human tumour cell line panel, 48 h
Structure (SMILES),TGI,GI50
Cc1c(F)c(N)c2c(=O)cc(-c3ccc(NC(=O)C(N)CCCN=C(N)N)c(F)c3)oc2c1F (stereo not given),36.9 µM,
COc1ccc(-n2c3c(c4c(CN(C)C)c(O)c(C)cc42)CCc2ccccc2C3=O)cc1,> 100 µM,> 100 µM
CN(C)CCOC1(CC2CCCCC2)CCC(C(C)(C)C)CC1 (stereo not given),19.5 µM,
Cc1cc2c(cc1Br)C1(C)CCC(C)C1(C)O2 (stereo not given),> 100 µM,
CC(=O)Nc1ccc(-c2nnc(SCC(=O)Nc3ccccc3C)o2)cc1,> 100 µM,
COc1cc(C(SCc2ccccc2)SCc2ccccc2)ccc1O,> 10 µM,
O=C1/C(=C/c2ccco2)NC(=S)N1CN1CCOCC1,> 100 µM,
Cc1ccc(C[P+](c2ccccc2)(c2ccccc2)c2ccccc2)cc1,> 52.6 µM,3.01 µM
COC(=O)[C@@H]1CCCN1C(=O)[C@H]1CCCN1C(=O)[C@@H](Cc1c[nH]c2ccccc12)NC(=S)Nc1cc(C(F)(F)F)cc(C(F)(F)F)c1,10.6 µM,3.26 µM
CC[C@@]1(O)C(=O)OCc2c1cc1n(c2=O)Cc2cc3c(NC(=O)CN)cccc3nc2-1,> 86.5 µM,
CCCCCCN1CCN(Cc2ccc(N(CC)CC)cc2)C(=O)C1=O,> 100 µM,6.48 µM
CCCCCCCCC/C=C1\CC(CO)(COC(=O)c2ccccc2)OC1=O (stereo not given),85.8 µM,
NC(N)=N/N=C/c1c(-c2ccc(Cl)c([N+](=O)[O-])c2)nc2ccccn12,3.63 µM,2.01 µM
CC(C)C1=CC23CCC4C(C)(C(=O)O)CCCC4(C)C2CC1C(C(=O)O)C3C(=O)O (stereo not given),> 100 µM,
CCOC12SC(=Nc3ccc(C)cc3)NN1C(=S)N(C)N=C2C (stereo not given),> 100 µM,
C[C@H](CCC1=NCCN1)[C@H]1CC[C@H]2[C@@H]3CC[C@@H]4C[C@H](O)CC[C@]4(C)[C@H]3C[C@H](O)[C@]12C,28.5 µM,
CN(CCN(C)C(=O)CCOS(C)(=O)=O)C(=O)CCOS(C)(=O)=O,> 100 µM,
O=[N+]([O-])c1cccc(-c2cc(-c3cc(Br)ccc3O)[nH]n2)c1,12.1 µM,2.82 µM
O=C1CC/C(=C\COc2ccc3ccc(=O)oc3c2)O1,84 µM,28.1 µM

Structure (SMILES),TGI,GI50
CN(C)CC(NC(NCS)C(=O)NCCNc1ccc(NCCNC(=O)C(NCS)NC(CN(C)C)OCCl)c2c1C(=O)c1c(O)ccc(O)c1C2=O)OCCl (stereo not given),4.37 µM and 1.85 µM,0.0942 µM
CCCCCCCCCCCCCCCCn1cc[n+](Cc2ccccc2)c1C,3.73 µM,1.64 µM
C[C@@H]1COC(Nc2ccc3ncnc(Nc4ccc(OCc5nccs5)c(Cl)c4)c3c2)=N1,> 10 µM and 15.3 µM,0.311 µM and 0.308 µM
Cn1ccc(C(=O)NCCCCCNC(=O)c2ccn(C)c(=O)c2O)c(O)c1=O,> 100 µM,
COc1cc(-c2nc3nc(N4CCN(C)CC4)ccc3[nH]2)c(OC)c2[nH]c(COC(C)=O)nc12,98.3 µM,
CCOC(=O)C(=Cn1c(=S)[nH]c2ccc([N+](=O)[O-])cc21)C(=O)OCC,> 100 µM,
C[Si]12OCCCN(CCO1)CCO2,> 100 µM,
CC1(C)[C@@H]2C[C@H]1C(Cc1cccc(C[C@H]3c4cc(-c5ccccn5)ncc4[C@H]4C[C@@H]3C4(C)C)c1)c1cc(-c3ccccn3)ncc12 (stereo not given in full),> 100 µM,
O=C(NN1C(=O)C=CC1=O)c1ccccc1Nc1ccccc1C(=O)NN1C(=O)C=CC1=O,> 100 µM,
CCOC(=O)C(=O)Nc1ccc(Cl)c(C(F)(F)F)c1,> 100 µM,
COc1ccc(-c2cc(-c3nnc(SCC(=O)Nc4ccc(C(C)=O)cc4)o3)c3ccccc3n2)cc1,> 100 µM,> 100 µM
NCCCCNC1(c2cc3ccccc3s2)CCCCC1,16.4 µM,
COc1ccccc1NC(=O)CC(=O)NNCC(=O)Nc1nnc(-c2ccccc2)o1,> 100 µM,
CO/N=C(/COc1c(-c2ccccc2)oc2ccccc2c1=O)c1ccc(F)cc1,> 100 µM,> 100 µM
CN1CCCCC(C(O)(c2ccccc2)c2ccccc2)C1=O (stereo not given),> 100 µM,
NC(=O)c1c2c(cc3c(=O)c4ccccc4[nH]c13)CCCC2,> 100 µM,
CC(C)(C)OC(=O)NCC(=O)N1CCCN(C(=O)CNC(=O)OC(C)(C)C)CC1,> 100 µM,
COc1ccccc1NC(=O)C1=C(C)NC(C)=C(C(=O)Nc2ccccc2OC)C1c1cccc2c1OCO2,> 100 µM,
Cc1c(O)c(=O)ccn1CCO,> 100 µM,
